# Measured values from PubChem BioAssay AID2451 (National Center for Advancing Translational Sciences (NCATS), 2010).
# Among all 290,000 compounds or so, about 2,100 (0.72%) were called active. The inconclusive results got no clear call from the source; some entries with a clear call stand among them for comparison. Calls follow the shape of the dose curve; as a rule, active = well fitted inhibition curve with a large enough effect; inconclusive = small, poorly fitted or top-dose-only effect, or effect the other way; inactive = flat fitted curve, though single readings scatter. A potency beside an inconclusive call is a rough fit, not a confirmed value.
# Biological target: Fructose-bisphosphate aldolase (Giardia intestinalis (strain ATCC 50803 / WB clone C6)) (UniProt A8B2U2)
# Assay: qHTS Assay for Inhibitors of Fructose-1,6-bisphosphate Aldolase from Giardia Lamblia; also: nearly all actives have a fitted effect of over 55% in size
# Conditions: purified Giardia FBPA; series mostly up to 59.6 µM
# Procedure, shortened: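 40 nM FBPA preincubated 10 min at RT with compound (up to 57.5 uM final), then substrate plus GAPDH/TPI/NAD/arsenate coupling and diaphorase/resazurin added. Fluorescence read after 20 min at RT, 525/598 nm.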
# Potency is read from the fitted curve at half-maximal effect; tags tell the direction and shape of the fitted curve.
# UniProt A8B2U2, sequence (A8B2U2 whole entry, looked up): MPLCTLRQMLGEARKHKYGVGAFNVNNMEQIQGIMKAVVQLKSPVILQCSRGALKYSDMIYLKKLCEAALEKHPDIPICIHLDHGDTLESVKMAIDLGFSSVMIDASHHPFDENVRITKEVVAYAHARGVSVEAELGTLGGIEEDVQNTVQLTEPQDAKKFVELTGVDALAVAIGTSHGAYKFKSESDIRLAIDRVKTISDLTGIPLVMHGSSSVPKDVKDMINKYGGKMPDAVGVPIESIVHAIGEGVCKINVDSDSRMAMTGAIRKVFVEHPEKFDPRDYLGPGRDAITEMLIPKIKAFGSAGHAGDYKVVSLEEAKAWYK
row,Compound,Potency
1,CNC(=O)c1[nH]cnc1C(=O)N[C@@H](C)C(=O)OCc1ccccc1,"inconclusive: 15.8 µM [inhibitor, partial curve]"
2,CC(C)C1NC(C(=O)O)Cc2c1[nH]c1ccccc21 (stereo unspecified),"inconclusive: 22.4 µM [inhibitor, single point]"
3,O=S(=O)(c1ccccc1)N1CCSC1c1ccco1 (stereo unspecified),"inconclusive: 22.3 µM [inhibitor, single point]"
4,COc1ccc(CN2CCc3ccccc3C2)cc1Br,"inconclusive: 15.8 µM [inhibitor, partial curve]"
5,CCOc1ccc(C(=O)c2ccc(OC)c(O)c2O)cc1,"inconclusive: 44.6 µM [inhibitor, single point]"
6,Cc1ccc(Cl)c(OCCN2CCc3ccccc3C2)c1,"inconclusive: 31.6 µM [inhibitor, single point]"
7,O=C(Oc1cccc(OC(=O)N2CCCCC2)c1)N1CCCCC1,inactive
8,NN1C(=O)/C(=C2/Sc3ccccc3N2CCCS(=O)(=O)O)SC1=S,active: 17.8 µM
9,O=C(COc1ccc(Cl)cc1)N1CCN(C(=O)c2cccs2)CC1,"inconclusive: 9.98 µM [inhibitor, partial curve]"
10,Cc1onc(-c2ccccc2Cl)c1C(=O)Nc1cccnc1,inactive
11,Cc1cc(C)nc(NC(=NCCc2c[nH]c3ccccc23)NC(=O)Nc2ccc(Cl)cc2)n1,inactive
12,CN(Cc1ccccc1Cl)C(=O)C1CCC(=O)N(C2CCCCCC2)C1 (stereo unspecified),inactive
13,O=[N+]([O-])c1ccc(N2CCN(Cc3ccc([N+](=O)[O-])o3)CC2)cc1,"inconclusive: 28.2 µM [inhibitor, partial curve]"
14,O=C1NC(c2ccc(Br)cc2)=N/C1=C/c1ccco1,"inconclusive: 15.8 µM [inhibitor, single point]"
15,O=C(O)c1cccc(-n2cccc2/C=C2/NC(=O)N(c3cccc(Cl)c3)C2=O)c1,inactive
16,COc1cc(-c2nnc(SCc3cc(=O)oc4cc(O)c(O)cc34)o2)cc(OC)c1OC,"inconclusive: 1.99 µM [inhibitor, partial curve]"
17,O=C(NCC1CCCO1)c1ccc2c3n(nc2c1)-c1ccccc1CO3 (stereo unspecified),inactive
18,O=C(N/N=C/c1ccc(O)cc1)/C(=C/c1ccccc1)CCO,inactive
19,CC(C)c1nnc(SCC(=O)NC2CCCCC2)n1C,inactive
20,CC1CN(CCCCOc2ccc(Cl)c3ccccc23)CC(C)O1 (stereo unspecified),"inconclusive: 15.8 µM [inhibitor, partial curve]"
21,COc1ccc(N2CCN(C(=O)CSc3nnc4ncccn34)CC2)cc1,"inconclusive: 31.5 µM [inhibitor, single point]"
